Test results as given in PubChem BioAssay AID1508624 (National Center for Advancing Translational Sciences (NCATS), 2021).
Screen size: about 48,000 compounds; about 120 (0.25%) were called active. About 4% were inconclusive and are not listed. The call rests on the fitted dose curve; in most records, active means well fitted activation curve with a large enough effect; inconclusive means small, poorly fitted or top-dose-only effect, or another doubt; inactive means no such curve, though single readings can be large or run the other way. The list shows a part of the results.

Experiment: Primary qHTS for Identification of Small Molecule Activators of Huntingtin-Antisense Promoter Activity; further: nearly all actives have a fitted effect of over 55% in size
Conditions: HEK293 HTT-AS promoter firefly luciferase reporter, 24 h; series mostly up to 57.5 µM; activity change, positive = activation: at the top concentration
Procedure, shortened: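 Quantitative HTS used concentration series of up to 57.5 uM final on HEK293 luciferase reporter cells, 24 h at 37 degrees C. Readout was Dual-Glo firefly luminescence.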

Activity change, positive = activation, inactive:
CNC(=O)Oc1ccc2c(c1)[C@]1(C)CCN(C)[C@@H]1N2C 1.3%
COc1ccccc1C(=O)Nc1nc2nc(C)cc(=O)n2[nH]1 -3.91%
CCOC(=O)c1c(C)oc2ccc(N(C(=O)c3ccncc3)S(=O)(=O)c3ccc(CC)cc3)cc12 -42.3%
O=C(CN1C(=O)COc2ccc(S(=O)(=O)NC3CCCC3)cc21)Nc1ccc(Cl)cc1F -29.6%
Cc1cc2c(F)c(Oc3ncnn4cc(OC[C@@H](C)O)c(C)c34)ccc2[nH]1 -30.3%
O=C(O)CSCC(=O)NC1CCSC1=O (centres undefined)
CCOC(=O)c1c(C)[nH]c(CCC(=O)Nc2cc(Cl)ccc2OC)c1C -24.6%
COC(=O)c1cc(NC(=O)c2cc3c(-c4ccccc4F)nn(C)c3s2)cc(C(=O)OC)c1 -54.6%
COc1ccc(OC)c(S(=O)(=O)NCC(c2ccc(N(C)C)cc2)N2CCOCC2)c1 (centres undefined) -7.35%
O=C(NCC(c1ccco1)S(=O)(=O)c1cccs1)c1ccccc1 (centres undefined) 16%
COc1ccc(N2CCN(S(=O)(=O)c3ccc(CC(C)C)cc3)CC2)cc1 -26.6%
COC(=O)c1cc2oc3ccccc3c2n1Cc1ccc(C)cc1 -1.96%
CCOC(=O)c1cc2c(=O)n3ccccc3nc2n(Cc2ccco2)c1=NC(=O)c1ccccc1Br -17.5%
CCOc1ccc(NC(=O)Cn2c(=O)n(CCCC(=O)NCCc3ccc(Cl)cc3)c(=O)c3ccccc32)cc1 -16%
Cc1ccc(Cn2c(SCC(=O)NCc3ccccc3)nc3ccsc3c2=O)cc1 -14.6%
Cc1cccc(N2CCN(S(=O)(=O)c3ccc(-c4cnc(C5CC5)o4)cc3)CC2)c1C 4.35%
Cc1ccccc1-c1noc(-c2ccc(NCC3CCCO3)c([N+](=O)[O-])c2)n1 (centres undefined) 13.3%
CCOC(=O)c1cccc(NC(=O)C(C)n2nc(C)c3c(C)n(-c4ccccc4)nc3c2=O)c1 (centres undefined) -17.5%
Cc1oc(-c2ccccc2F)nc1CS(=O)(=O)CC(=O)N1CCN(c2ccccc2)CC1 -25.1%
Cc1ccc([N+](=O)[O-])cc1NC(=O)CN(c1ccccc1)S(=O)(=O)N(C)C -19.7%
COc1ccc(-c2[nH]c(-c3ccc(O)cc3)nc2-c2ccccc2)cc1 -27.7%
O=c1cc(COc2ccc(Cl)cc2Cl)nc2scc(-c3ccccc3)n12 -9.43%
COc1ccccc1OCC(=O)N(Cc1ccco1)Cc1ccccc1F -21.5%
CCOc1ccc(CC(=O)NC2CC(=O)N(c3cccc(F)c3)C2)cc1 (centres undefined) -7.94%
COc1ccccc1-c1nn2c(=O)cc(CN3CCN(C(=O)Nc4ccc(C)cc4Cl)CC3)nc2s1 8.07%
CCOc1ccc(-n2c(=O)c3c(C)c(C)sc3n(CC(=O)C(C)(C)C)c2=O)cc1 9.41%
CCS(=O)(=O)N1CCc2cc(C(=O)Nc3ccc(Br)cc3F)ccc21 -17.4%
Cc1ccc(-n2c(=O)c3c(c4cc(C)ccc4n3C)n(CC(=O)Nc3ccc(F)cc3)c2=O)cc1 -19.9%
CC(=O)c1ccc(N2CCN(C(=O)c3cn(C)c(=O)c4c3c3ccccc3n4C)CC2)cc1 6.54%
COc1ccc(CNC(=O)COCc2cc(-c3ccc4c(c3)OCO4)on2)cc1 3.87%
COc1cc(C(=O)NCC(c2ccco2)S(=O)(=O)c2cccs2)cc(OC)c1OC (centres undefined) -3.92%
CCc1cccc(C)c1NC(=O)c1ccc2c(c1)CCN2S(=O)(=O)c1ccc(Cl)cc1 -24.5%
COc1ccc(N(Cc2cccs2)C(=O)c2ccco2)cc1 -34.4%
CCCCC(=O)Nc1nnc(S(=O)(=O)N(C)Cc2ccc(Cl)cc2)s1 -2.52%
Cc1cc(C)cc(NC(=O)CCc2c(C)nc3nc(CNC(=O)c4cccc(F)c4)nn3c2C)c1 -5.92%
COCCCNc1nc2c(c(=O)n(Cc3ccc(F)cc3)c(=O)n2C)n1C -5.03%
Cc1nc2n(c(=O)c1CCN1CCC(C(=O)c3ccc(F)cc3)CC1)CCS2 -19.5%
CCOc1cc(C(=O)NCCc2sc(-c3ccc(F)cc3)nc2C)cc(OCC)c1OCC -22.3%
CNC(=O)CCCN1C(=O)c2cccnc2Sc2ccccc21 -9.37%
Cc1nc2ccc(S(=O)(=O)N(CC(=O)Nc3ccc(F)cc3F)Cc3ccccc3)cc2s1 -19%
CCOc1ccc(NC(=O)c2ccc3[nH]c(C)c(C)c3c2)cc1 -1.68%
O=C(Cn1c(SCc2ccccc2F)nc2ccncc21)Nc1ccccc1C(F)(F)F 9.95%
O=C(Cn1c(=O)c2cccn2c2cccnc21)NCc1cccc(F)c1 -8.93%
Cc1ccc(S(=O)(=O)Nc2cccc(-c3cn4cccc(C)c4n3)c2)c(C)c1 -8.9%
CCc1ccc(NC(=O)CSC2=Nc3ccccc3C3=NC(CCC(=O)NCc4ccccc4)C(=O)N23)cc1 (centres undefined) -5.81%
Cc1ccccc1NC(=O)Cn1cc(C(=O)c2cccs2)c2ccccc21 -27.9%
CCCCN(C)C(=O)c1cn(C)c2ccc(S(=O)(=O)N3CCC(C)CC3)cc2c1=O 15% [at 11.5 µM, percent change from vehicle, -100% = no light]
CN(C)C(=O)Oc1cccc([N+](C)(C)C)c1 1.37%
O=C(Cn1ccc2cc(S(=O)(=O)N3CCCCC3)ccc21)NCCc1ccccc1Cl -32.2%
COc1ccccc1NC(=O)Cn1c(=O)n(Cc2ccccc2)c(=O)c2c1c1cc(C)ccc1n2C -5.91%
CCCCC(=O)OC1=C(C(=O)c2ccccc2)N(CCC)S(=O)(=O)c2ccccc21 -36%
CC(NC(=O)CSc1n[nH]c(-c2ccccc2Cl)n1)c1nc2ccccc2[nH]1 (centres undefined) -4.76%
CC(=O)c1cccc(NC(=O)c2nc(-c3ccccc3)n(-c3ccccc3)n2)c1 -15.8%
O=C1CCCc2cc(S(=O)(=O)N3CCCC(C(=O)NCc4ccccc4)C3)ccc2N1 (centres undefined) -22.6%
COc1cc2c(cc1OC)n(Cc1cccc(C(F)(F)F)c1)c(=O)n1nc(-c3ccccc3)nc21 -22.2%
COc1cccc(NC(=O)CCNS(=O)(=O)c2ccc3c(c2)oc(=O)n3C)c1 -7.52%
CCOC(=O)[C@H](CCc1ccccc1)N[C@@H](C)C(=O)N1Cc2cc(OC)c(OC)cc2C[C@H]1C(=O)O -1.56%
CCOc1ccc(NS(=O)(=O)c2cc3c(cc2Cl)NC(=O)CO3)cc1 -14.5%
Cc1cc(C)c(NC(=O)CCS(=O)(=O)c2cc3c(cc2Cl)NC(=O)CO3)c(C)c1 -17.6%
CN1CCC(OC(c2ccccc2)c2ccccc2)CC1 -8.25%
O=C(CSCn1nnc2c(=O)[nH]c(Cc3ccc(F)cc3)nc21)Nc1cccc(C(F)(F)F)c1 -11.7%
CC(=O)Nc1ccc(NC(=O)CCCn2nc(C)c3sc4ccccc4c3c2=O)cc1 -0.76%
CCOc1ccc(N(C)S(=O)(=O)c2ccc3c(c2)CCCN3C(C)=O)cc1 -20.6%
COc1cc2c(cc1OC)C(COc1cccc(C(F)(F)F)c1)N(C(=O)c1ccc(S(=O)(=O)N3CCCC3)cc1)CC2 (centres undefined) -14.3%
CCC(C)NC(=O)C1CCN(S(=O)(=O)c2ccc3c(c2)CCCN3C(C)=O)CC1 (centres undefined) -7.6%
CCc1ccccc1NC(=O)C(=O)NCCCN1CCOCC1 -10%
Cc1c(C(=O)Nc2nc(-c3ccc(F)cc3)ns2)oc2ccc(Cl)cc12 -2.87%
Cc1ccc(CCNC(=O)CS(=O)Cc2nc(-c3ccccc3Cl)oc2C)cc1 (centres undefined) -9.02%
O=C(Cc1ccccc1)Nc1sc2c(c1C(=O)Nc1ccc(Br)cc1)CCC2 -14.8%
Cc1ccc2oc(C(=O)Nc3cccc(Cl)c3)cc(=O)c2c1 -8.5%
COc1ccccc1C(=O)Nc1ccccc1OCc1cc(=O)n2ccccc2n1 0.436%
O=C(CS)Nc1ccccc1 -23.7%
C/C=C1\[C@H]2C=C(C)C[C@]1(N)c1ccc(=O)[nH]c1C2 -2.38%
O=C(Nc1ccc(F)cc1)c1csc2c1CCCCC2 -95%
COc1cccc(N2CC(NC(=O)c3ccc(S(=O)(=O)N4CCOCC4)cc3)CC2=O)c1 (centres undefined) -11.2%
O=C(NCCc1ccccc1)c1nc(-c2ccc(Cl)cc2)n2c1CCCCC2 -31.2%
COc1ccc(CNc2nc3c(-c4ccccc4)nnn3c3ccccc23)cc1 -1.7%
O=C(c1cnn(-c2ccc(F)cc2)c1-n1cccc1)N1CCN(c2ccc(F)cc2)CC1 -21.6%
CCNc1nc(NCc2ccc(F)cc2)c2cnn(C)c2n1 -30.7%
CC1=C(C(=O)Nc2cccc(Cl)c2C)C2(CCCCCC2)OC1=O -18.8%
CC1CCN(S(=O)(=O)c2ccc3c(c2)CCN3)CC1 -8.3%
O=c1[nH]cnc2[nH]ncc12
COc1ccccc1Nc1sc(C(=O)c2ccc(C)cc2C)c(N)c1S(=O)(=O)c1ccccc1 -20.4%
CCc1ccc(S(=O)(=O)c2nnn3c2nc(Nc2cc(OC)ccc2OC)c2sccc23)cc1 -4.79%
O=S(=O)(NCCS(=O)(=O)N1CCN(c2ccccc2)CC1)c1ccc(Br)cc1 0.883%
Cc1ccc(C(=O)Nc2cc3c(cc2C)n(C)c(=O)c(=O)n3C)cc1 -5.79%
Cc1cc(O)c2c(c1)C(=O)c1cc(O)cc(O)c1C2=O -1.17%
CCOC(=O)c1c(-c2ccccc2)oc2ccc(NS(=O)(=O)c3cc(C)c(C)cc3C)cc12 7.65% [at 11.5 µM, percent change from vehicle, -100% = no light]
CCOc1ccccc1CN1CCN(S(=O)(=O)c2ccccc2)CC1 -1.87%
Cc1ccccc1NC(=O)c1ccc2c(c1)c(C)c(C)n2Cc1ccccc1 -21.8%
CC(=O)c1cccc(NC(=O)c2oc3c(c2C)-c2nn(Cc4ccc(Cl)cc4)cc2CC3)c1 -31.2%
O=C(CN1N=C(c2ccc(Cl)cc2)CCC1=O)NCCc1ccc(Cl)cc1 -22.3%
COCc1nc2ccccc2n1CCOc1cccc(C)c1 -13.4%
COc1ccc(S(=O)(=O)N2CCCN(CC(=O)Nc3ccc(NC(C)=O)cc3)CC2)cc1 6.16% [at 11.5 µM, percent change from vehicle, -100% = no light]
